Laboratory results as given in PubChem BioAssay (NCATS).
Some of the results follow. These are further read-outs of the screen, such as a control signal, another cell line or another target. No call is given for them. The note in brackets gives the kind of curve behind each potency; many fits are weak.

Assay: qHTS drug screen for cell cycle checkpoint inhibitors in PARPi-resistant BRCA-mutant ovarian cancer cell lines. (AID 1963452)
Details: PEO1/OlaR viability, CellTiter-Glo luminescence, 96 h; measured here: PEO1 parental viability
Summary of the method: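 PEO1, PEO4 and PEO1/OlaR ovarian cancer cells, 600 per well, exposed 96 h at 37C to a dilution series. Viability read by CellTiter-Glo luminescence, normalized to DMSO and empty wells; activity summarized as Z-AUC.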
Tags give direction and shape of the fitted curve.

Row | SMILES | AC50
1 | O=C(c1c(F)ccc(NS(=O)(=O)N2CC[C@@H](F)C2)c1F)c1c[nH]c2ncc(-c3cnc(C4CC4)nc3)cc12 | 13800 nM [falling, single point]
2 | CS(=O)(=O)c1ccc(-c2cnc(N)c(C(=O)Nc3ccccc3)n2)cc1 | 1740 nM [falling, full curve, poor fit]
3 | c1ccc2c(-c3cnn4cc(-c5ccc(OCCN6CCOCC6)cc5)cnc34)ccnc2c1 | 1200 nM [falling, full curve]
4 | Cc1nc(-c2cn3c(n2)-c2ccc(-c4cnn(C(C)(C)C(N)=O)c4)cc2OCC3)n(C(C)C)n1 | 6920 nM [falling, partial curve]
5 | CC(C)(O)CS(=O)(=O)Nc1ccc2c(c1)CCN(C(=O)COc1cccnc1)C2 | 19.5 nM [falling, full curve]
6 | N#Cc1ccnc(Nc2cc(C3CCN(C4COC4)CC3)cc(N3CCC(F)(F)C3)n2)c1 | 4900 nM [falling, partial curve]
7 | Cc1c(CN2CCC(Nc3ncnc4sc(CC(F)(F)F)cc34)CC2)ccc2c1cc(C#N)n2Cc1cn[nH]c1 | 3470 nM [falling, full curve]
8 | Nc1nc2c(c(=O)[nH]1)N1CN(c3ccc(C(=O)N[C@@H](CCC(=O)O)C(=O)O)cc3)CC1CN2 (some centres undefined) | 1230 nM [falling, full curve]
9 | CC[C@@H](C)Nc1cc(C(=O)NC2CC3CC[C@@H](C2)N3c2ccc(C(=O)C3CC3)cn2)c(C)cc1C(N)=O (some centres undefined) | 174 nM [falling, full curve]
